# The source gives no read counts; variants with many changes may rest on few reads.
# B1: LINE1-mini (parent)
# chain: GGCAGAGCUCAACACAGCGUGGCAAAGUGGCUGUGGCUAGACUGCC
# Variants of: B1
# Assay: self-cleavage, relative activity (ratio to wild type); higher = more cleavage; in vitro, sequencing; the parent is a self-cleaving ribozyme
row,Variant,self-cleavage
1,GGCAAAGAUCAACGCAGCGUGGGAAAGUGGCUGUGUCUAGACUGCU [G5A C8A A14G C23G G36U C46U],0.22
2,GGCUGAGCCCAACACAGCGUGGCAAAGUGGCUGCGGCUAGACUACC [A4U U9C U34C G44A],0.03
3,GGCUGAGCUCAACACAGCGUGGCAAAGUGGCUGAGGAUAGACUGCC [A4U U34A C37A],0.02
4,GGCAAAGCUGAUCACAGCGUGGCAAAGUGGCUGUGGCUCGAAUGCG [G5A C10G A12U A39C C42A C46G],0.02
5,GGCAAAGCUCAACACAGCGUGGCAAGGUGGCUGUGGCUAGACUCCC [G5A A26G G44C],0.07
6,GGCUGAGCCCAACACAGCGUGUCAAAGUGGCGGUGGCUAGACUGCC [A4U U9C G22U U32G],0
7,GGCUGAGCUCAACACAGCGUGGCAAAGUGGCUGAGGCCAGACUGCC [A4U U34A U38C],0.08
8,GGCAAUGCUCAACAAACCGUGUCAGAGUGGCUGUGGCUAGACUGCC [G5A A6U C15A G17C G22U A25G],0.03
9,GGCAAAGCUCAACACAGCGUGGCAGAGUGGCUGUCGUUAGACUGCC [G5A A25G G35C C37U],0.04
10,GGCUGAGCUCAACACAGCGUGGCAAAGGGGCUGUGGCUAGACUGUC [A4U U28G C45U],0.27
11,GGCUGAGCCCAACACAGAGUGGCAAAGUGGCUGUGGCUAGACUGCC [A4U U9C C18A],0.09
12,GGCAAAGAACAACACAGCGAUGCAAAGUAGCUGUGGCUACACUGCC [G5A C8A U9A U20A G21U G29A G40C],0.04
13,GGCAAAGCUCAACACAGCGUGGCCAAUUGGCUGUGGCUAGACUGCC [G5A A24C G27U],0.15
14,GGCAAAGCUGAACACAGCGUGGCAAAGUGGCUGUGGUUAGACUGCC [G5A C10G C37U],0.03
15,GGCAAAGCUAAAAACAGCGUGGCAAAGUGGCUCUGGCUAGACUGCC [G5A C10A C13A G33C],0.01
16,GGCAACGCAGAACACAGCGUGGCAAAGUGGCUGUGGCUAGACUCCC [G5A A6C U9A C10G G44C],0.03
17,GGCUGAGCUCAACACAGCGGGUCAAAGUGGCUGUGGCUAGACUGCC [A4U U20G G22U],0.06
18,GGCAAAGCUCGACACAGCUUGGCAACGUGGCUGUGGGUAGGCUGCC [G5A A11G G19U A26C C37G A41G],0.01
19,GGCAAUGCUCAACACAGCGUGGCAAAGUGGCUGUGGUUAAACUGCC [G5A A6U C37U G40A],0.03

row,Variant,self-cleavage
1,GGCAAAGCUCAACACAGCGUGGCAUAGUGGCUGUGGCUAGUCUGCC [G5A A25U A41U],0.08
2,GGCUGAGCUCAACACAGCGUGGCAAAGUGACUGUGGCUAGCCUCCC [A4U G30A A41C G44C],0.05
3,GGCAAAGCUCAACACAGCGUGGCGAAAUGGCUGUGGUUGGACUGCC [G5A A24G G27A C37U A39G],0.11
4,GGCAAAGCUCAACACGGCGUGGCAAAGUGGCUGUCGCUAGACUGCC [G5A A16G G35C],0.03
5,GGCAAAGCUAAAUACGGCAUGGCAAAGUGUCUGUGGCUAGACUGCC [G5A C10A C13U A16G G19A G30U],0.04
6,GGCAAAGCUCAACACGGCGUGGCAAAGUAGCUGGGGCUAGACUGCC [G5A A16G G29A U34G],0.03
7,GGCAAAGCUCUACAGAGCGUGGCAAAUUGGUAGUGGCUAGACUGCC [G5A A11U C15G G27U C31U U32A],0.02
8,GGCAAGGCUCAACACAGCGUGGCAAAGUGGCUGUUGCUAGACUGCC [G5A A6G G35U],0.06
9,GGCAAAGCUCAACACAGCGUGGCACAGCUGCUGUGCCUAGACUGCC [G5A A25C U28C G29U G36C],0.03
10,GGCAAGGCACAACACAGCGUGGCAAAGUGGCUGGGGCUAGACUGCC [G5A A6G U9A U34G],0.07
11,GGCAAAGAUCAACACAGUGUGGCAAAGUGGCUGUGUCUAGACUGCC [G5A C8A C18U G36U],1.37
12,GGCAAAGCUCACCACAGCCUGGCAAACUGGCUGUGGCUAGACUGCC [G5A A12C G19C G27C],0.01
13,GGCAAAGCUGAACACAGCGUGGCAAAGUGGCUUUGGCUAGACUGCC [G5A C10G G33U],0.04
14,GGCAAAGCUCAACACCGCGUGACAAAGUGGCUGUGGCUAGACUGCC [G5A A16C G22A],0.06
15,GGCAAGGCACAACACAGCGUGGCAAAGUGGCUGUGGCUAGACUGCC [G5A A6G U9A],0.36
16,GGCAAAGCUCAACACAGCGUGGCCAAGUUGCUGUGGCUAGACUGCC [G5A A24C G29U],0.05
17,GGCAAAGCUAAACACAGCGUGGCAAAGCGGCUGUGGCUAGACUGCC [G5A C10A U28C],0.02
18,GGCUGAGCUCAACACAGCGUGGCAAAGUGACUGUGGCUAUAGUGCC [A4U G30A G40U C42G],0.05
19,GGCUGAGCUCAACACAGCGUGGCAAAGUGGCAUUGGCUCGACUGCC [A4U U32A G33U A39C],0.06

row,Variant,self-cleavage
1,GGCUGAGCGCAACAAAGCGUGGCAAAGUGGCUGUGUCUAGACUGCC [A4U U9G C15A G36U],0.03
2,GGCAAAGCUCAACACAGCGUGGCACAGUGCCUGUGGCUAGACUGCA [G5A A25C G30C C46A],0.03
3,GGCUGAGCUCAACACAGCGUGGCAAAGUGGCGGUGGCUAGAGUGCC [A4U U32G C42G],0.1
4,GGCUGAGCUCAACACAGCGUGGCAAAGUGGCUGCGGUUAGUCUGCC [A4U U34C C37U A41U],0.06
5,GGCAACGCUCGCAACAGCGUGGCAAAAUGGCUGUGGCUAGACUGCC [G5A A6C A11G A12C C13A G27A],0.03
6,GGCAAAGCUCUAAACAGCGUGGCAAAGUGGCUGUGGCUAGACUGCC [G5A A11U C13A],0
7,GGCUGAGCUCAACACAGCGUGGCAAAGUGUCUGUAGCUAGUCUGCC [A4U G30U G35A A41U],0.03
8,GGCUGAGCUCAACACAGCGUGGCAAAGUGGCGGUGGGUAGACUGCC [A4U U32G C37G],0.02
9,GGCAAAGAUCAACACCGCGUGGCAAAGUGGCUAUCGCUACACUGCC [G5A C8A A16C G33A G35C G40C],0.01
10,GGCAAAGUUCAACACUGCGUGGCAAAGUGGCUGUGGCUAGACUGCC [G5A C8U A16U],0.36
11,GGCAAAGAUCAACUCAGCGUGGCUGAGUGGCUGUGGCUAGACUGCC [G5A C8A A14U A24U A25G],0.16
12,GGCAAAGUCCAACACAGCGUGGCAAAGUGGCUGUGGUUAGACUGCC [G5A C8U U9C C37U],0.03
13,GGCAACGCUCAACACAGCGUGGCAAAGUGGCUGUGGCUAGCCUGCC [G5A A6C A41C],0.03
14,GGCUGAGCCCAAGACAGCGUGGCAACGUGGCUGUGGCUAGACUGAC [A4U U9C C13G A26C C45A],0.02
15,GGCUGAGCUCAACACAGCGAGGCAAAGUGGUUGUGGCUAGACUGCC [A4U U20A C31U],0.05
16,GGCUGAGCGCAACACAGCGUGGCAAACUGGCUGUGGCUAGACUGCC [A4U U9G G27C],0.06
17,GGCUGAGCUCAACACAGCGGGGAAAGGUGUCUGUGGCUUGACUGCC [A4U U20G C23A A26G G30U A39U],0.02
18,GGCAACGCUCAAAACAGCAUGUCAAAGUGGCUGUGGCUAGACUGCC [G5A A6C C13A G19A G22U],0.14

# — the RNAGym collection of RNA variant scans (doi:10.7554/elife.90254)
